Results as given in the supplement of paper PMC4967469.
Lines with a small IC50 respond at low doses; fits outside the tested doses are given as limits. AUC, from the same fit, is the share of area under the viability curve across the 256-fold dose range; values near 1 show little effect. For part of these data: An inferred top dose comes from the curve model; the source does not state it. For part of these data: Drugs with an entry number were screened twice under separate entries, and the two screens often disagree.

Legend:
Test in all cases: Viability of human cancer cell lines after 72 h of drug (GDSC screen)
Docetaxel = compound: CC(=O)O[C@@]12CO[C@@H]1C[C@H](O)[C@@]1(C)C(=O)[C@H](O)C3=C(C)[C@@H](OC(=O)[C@H](O)[C@@H](NC(=O)OC(C)(C)C)c4ccccc4)C[C@@](O)([C@@H](OC(=O)c4ccccc4)[C@H]21)C3(C)C [Docetaxel]; conditions: top dose 0.0125 µM
Procedure: (§1)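 Human cancer cell lines in 384-well plates, medium with 10% serum, drug for 72 h over a 256-fold dose range (nine 2-fold or five 4-fold steps up to the top dose). Adherent lines were fixed and stained with the nucleic acid dye Syto60, suspension lines read with resazurin; signal relative to control wells, capped at 0 and 100%. One two-parameter sigmoid per drug and line, fitted in a mixed model over all curves with the slope shared within a line.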

AMG-706 = compound: CC1(C)CNc2cc(NC(=O)c3cccnc3NCc3ccncc3)ccc21 [AMG-706]; conditions: top dose 2 µM; top dose inferred
Procedure: as §1

JNK Inhibitor VIII = compound: CCOc1nc(NC(=O)Cc2cc(OC)ccc2OC)cc(N)c1C#N [JNK Inhibitor VIII]; conditions: top dose 10 µM; top dose inferred
Procedure: as §1

NSC-207895 = compound: CN1CCN(c2ccc([N+](=O)[O-])c3no[n+]([O-])c23)CC1 [NSC-207895]; conditions: top dose 20 µM; top dose inferred
Procedure: as §1

FTI-277 = compound: COC(=O)[C@H](CCSC)NC(=O)c1ccc(NC[C@@H](N)CS)cc1-c1ccccc1 [FTI-277]; conditions: top dose 1.024 µM; top dose inferred
Procedure: as §1

YM155 = compound: COCC[n+]1c2c(n(Cc3cnccn3)c1C)C(=O)c1ccccc1C2=O [YM155]; conditions: top dose 5.12 µM
Procedure: as §1

OSI-906 = compound: C[C@]1(O)C[C@@H](c2nc(-c3ccc4ccc(-c5ccccc5)nc4c3)c3c(N)nccn32)C1 [OSI-906]; conditions: top dose 2.56 µM; top dose inferred
Procedure: as §1

SB-715992 = compound: Cc1ccc(C(=O)N(CCCN)[C@@H](c2nc3cc(Cl)ccc3c(=O)n2Cc2ccccc2)C(C)C)cc1 [SB-715992]; conditions: top dose 0.128 µM; top dose inferred
Procedure: as §1

JQ1 = compound: Cc1sc2c(c1C)C(c1ccc(Cl)cc1)=N[C@@H](CC(=O)OC(C)(C)C)c1nnc(C)n1-2 [JQ1]
Procedure: as §1

Belinostat = compound: O=C(/C=C/c1cccc(S(=O)(=O)Nc2ccccc2)c1)NO [Belinostat]; conditions: top dose 20 µM; top dose inferred
Procedure: as §1

JNJ-26854165 = compound: c1ccc2c(CCNc3ccc(Nc4ccncc4)cc3)c[nH]c2c1 [JNJ-26854165]; conditions: top dose 10 µM
Procedure: as §1

[1] = top dose 1 µM, screen: GDSC drug entry 1218, top dose inferred
[2] = top dose 2.56 µM, screen: GDSC drug entry 163

CAL-62 (thyroid, adherent) was tested, and the AUC (Docetaxel) was 0.458, the IC50 (Docetaxel) was 0.603 nM and the AUC (AMG-706) was 0.98. For the same cell line, the IC50 (AMG-706) was > 2000 nM, the AUC (JNK Inhibitor VIII) was 0.988 and the IC50 (JNK Inhibitor VIII) was > 10000 nM. The AUC (NSC-207895) was 0.855, the IC50 (NSC-207895) was 14700 nM and the AUC (FTI-277) was 0.938. For the same cell line, the IC50 (FTI-277) was > 1020 nM, the AUC (YM155) was 0.032 and the IC50 (YM155) was < 20 nM. For the same cell line, the AUC (OSI-906) was 0.967, the IC50 (OSI-906) was > 2560 nM and the AUC (SB-715992) was 0.793. The IC50 (SB-715992) was 55.1 nM, the AUC (JQ1; [1]) was 0.942 and the IC50 (JQ1; [1]) was > 1000 nM. The AUC (JQ1; [2]) was 0.564, the IC50 (JQ1; [2]) was 238 nM and the AUC (Belinostat) was 0.413. For the same cell line, the IC50 (Belinostat) was 732 nM, the AUC (JNJ-26854165) was 0.984 and the IC50 (JNJ-26854165) was > 10000 nM.
KYSE-520 (oesophagus, adherent) showed an AUC (Docetaxel) of 0.808, an IC50 (Docetaxel) of 9.38 nM and an AUC (AMG-706) of 0.948. For the same cell line, the IC50 (AMG-706) was > 2000 nM, the AUC (JNK Inhibitor VIII) was 0.964 and the IC50 (JNK Inhibitor VIII) was > 10000 nM. The AUC (NSC-207895) was 0.881, the IC50 (NSC-207895) was > 20000 nM and the AUC (FTI-277) was 0.966. For the same cell line, the IC50 (FTI-277) was > 1020 nM, the AUC (YM155) was 0.099 and the IC50 (YM155) was < 20 nM. The AUC (OSI-906) was 0.929, the IC50 (OSI-906) was > 2560 nM and the AUC (SB-715992) was 0.963. For the same cell line, the IC50 (SB-715992) was > 128 nM, the AUC (JQ1; [1]) was 0.978 and the IC50 (JQ1; [1]) was > 1000 nM. For the same cell line, the AUC (JQ1; [2]) was 0.713, the IC50 (JQ1; [2]) was 796 nM and the AUC (Belinostat) was 0.594. It also gave an IC50 (Belinostat) of 2480 nM, an AUC (JNJ-26854165) of 0.823 and an IC50 (JNJ-26854165) of 8800 nM.
